Values quoted from earlier work in PubChem BioAssay AID1259410 (Chemical Carcinogenesis Research Information System (CCRIS), 2018).
The source gives many values for each of these; only a part stands here.

Test system: rodent tumor promotion studies, tumor incidence
Assay: CCRIS tumor promotion studies
Text: The CCRIS database contains chemical records with carcinogenicity, mutagenicity, tumor promotion, and tumor inhibition test results. It was developed by the National Cancer Institute (NCI). Data are derived from studies cited in primary journals, current awareness tools, NCI reports, and other sources. Test results have been reviewed by experts in carcinogenesis and mutagenesis.
CCRIS provides historical information from the years 1985 - 2011. It is no longer updated.
This is an archive assay for CCRIS tumor promotion studies.

SMILES: CCCCCCCCCCCCCC(=O)O[C@@H]1[C@@H](C)[C@@]2(O)[C@@H](C=C(CO)C[C@]3(O)C(=O)C(C)=C[C@@H]23)[C@@H]2C(C)(C)[C@]12OC(C)=O
- outcome (Carcinogen: DIMETHYLARSINOUS IODIDE [676-75-5], Doses [Carcinogen]: 10 MG IN ACETONE ONCE, Doses [Promoter]: 10 NMOL 2X WEEKLY FOR 25 WKS (STUDY DURATION: 25 WKS), Route [Carcinogen]: SKIN, Route [Promoter]: SKIN, Species: MOUSE, Strain/Sex: HR-1,HAIRLESS/FEMALE (10/GROUP)): skin-positive
- outcome (Carcinogen: MANCOZEB, 8018-01-7, Carcinogen: MANCOZEB, 8018-01-7, Doses [Carcinogen]: 0, 100 MG/KG BW IN 200 µL DMSO ADMINISTERED INTRAPERIONEALLY ON DAY 14 OF GESTATION, Doses [Carcinogen]: 0, 100 MG/KG BW IN 200 µL DMSO ADMINISTERED INTRAPERIONEALLY ON DAY 14 OF GESTATION, Doses [Promoter]: 0, 5 UG 3/WK AFTER 6 WK OF AGE, Doses [Promoter]: 0, 5 UG 3/WK AFTER 6 WK OF AGE, Route [Carcinogen]: TRANSPLACENTAL, Route [Promoter]: DERMAL, Species: MOUSE, Strain/Sex: SWISS/FEMALE): skin: tumor
- outcome (Carcinogen: MANCOZEB, 8018-01-7, Carcinogen: MANCOZEB, 8018-01-7, Doses [Carcinogen]: 0, 100 MG/KG BW IN 200 µL DMSO ADMINISTERED INTRAPERIONEALLY ON DAY 14 OF GESTATION, Doses [Carcinogen]: 0, 100 MG/KG BW IN 200 µL DMSO ADMINISTERED INTRAPERIONEALLY ON DAY 14 OF GESTATION, Doses [Promoter]: 0, 5 UG 3/WK AFTER 6 WK OF AGE, Doses [Promoter]: 0, 5 UG 3/WK AFTER 6 WK OF AGE, Route [Carcinogen]: TRANSPLACENTAL, Route [Promoter]: DERMAL, Species: MOUSE, Strain/Sex: SWISS/MALE): skin: tumor
- outcome (Carcinogen: MANCOZEB, 8018-01-7, Carcinogen: MANCOZEB, 8018-01-7, Doses [Carcinogen]: 100 MG/KG BW IN 50 µL DMSO 3/WK FOR 3 WK, Doses [Promoter]: 0.5 UG IN 100 µL ACETONE 2/WK FOR 12 WK BEGINNING 1 WK POST CARCINOGEN (STUDY DURATION: 16 WK), Route [Carcinogen]: DERMAL, Route [Promoter]: DERMAL, Species: MOUSE, Strain/Sex: SWISS/FEMALE): skin: papilloma
- outcome (Carcinogen: N-METHYLDIBENZO[C,G]CARBAZOLE, 27093-62-5, Carcinogen: N-METHYLDIBENZO[C,G]CARBAZOLE, 27093-62-5, Doses [Carcinogen]: 200 NMOL IN 50 µL ACETONE ONCE, Doses [Promoter]: 0, 2 UG IN 50 µL ACETONE 2/WK FOR 28 WK BEGINNING IMMEDIATELY AFTER CARCINOGEN TREATMENT (STUDY DURATION: 28 WK), Doses [Promoter]: 0, 2 UG IN 50 µL ACETONE 2/WK FOR 28 WK BEGINNING IMMEDIATELY AFTER CARCINOGEN TREATMENT (STUDY DURATION: 28 WK), Route [Carcinogen]: DERMAL, Route [Promoter]: DERMAL, Species: MOUSE, Strain/Sex: ICR/FEMALE): skin: papilloma
- outcome (Carcinogen: NIVALENOL [23282-20-4], Doses [Carcinogen]: 5 UG 3/WK IN WK 1, 3 UG 3/WK IN WKS 7, 13, 19, 25, AND 31, 2 UG 3/WK IN WKS 37, 43, 49, AND 55 (STUDY DURATION: 60 WKS), Doses [Carcinogen]: 5 UG 3/WK IN WK 1, 3 UG 3/WK IN WKS 7, 13, 19, 25, AND 31, 2 UG 3/WK IN WKS 37, 43, 49, AND 55 (STUDY DURATION: 60 WKS), Doses [Promoter]: 2 UG 3/WK FOR 6 WKS IN BETWEEN CARCINOGEN TREATMENTS (STUDY DURATION: 60 WKS), Route [Carcinogen]: DERMAL, Route [Promoter]: DERMAL, Species: MOUSE, Strain/Sex: BALB/C/MALE, FEMALE, Strain/Sex: BALB/C/MALE, FEMALE): skin: papillomas and carcinomas
- outcome (Carcinogen: NIVALENOL [23282-20-4], Doses [Carcinogen]: 5 UG 3/WK IN WKS 1, 7, 13, 19, 25, 31, 37, 43, 49, AND 55 (STUDY DURATION: 60 WKS), Doses [Promoter]: 2 UG 3/WK FOR 6 WKS IN BETWEEN CARCINOGEN TREATMENTS (STUDY DURATION: 60 WKS), Route [Carcinogen]: DERMAL, Route [Promoter]: DERMAL, Species: MOUSE, Strain/Sex: BALB/C/MALE, FEMALE, Strain/Sex: BALB/C/MALE, FEMALE): skin: papillomas and carcinomas
- outcome (Carcinogen: PHENOXYOXIRANE, 79526-11-7, Carcinogen: PHENOXYOXIRANE, 79526-11-7, Doses [Carcinogen]: 5 UMOL IN 0.2 ML ACETONE/DMSO FOR 32 WK, Doses [Promoter]: 15 NMOL IN 0.1 ML ACETONE FOR 32 WK (STUDY DURATION: 32 WK), Route [Carcinogen]: DERMAL, Route [Promoter]: DERMAL, Species: MOUSE, Strain/Sex: ICR/FEMALE): skin: papilloma
- outcome (Carcinogen: PHENYL VINYL ETHER, 766-94-9, Carcinogen: PHENYL VINYL ETHER, 766-94-9, Doses [Carcinogen]: 5 UMOL IN 0.2 ML ACETONE/DMSO FOR 32 WK, Doses [Promoter]: 15 NMOL IN 0.1 ML ACETONE FOR 32 WK (STUDY DURATION: 32 WK), Route [Carcinogen]: DERMAL, Route [Promoter]: DERMAL, Species: MOUSE, Strain/Sex: ICR/FEMALE): skin: papilloma
- outcome (Carcinogen: Sodium arsenite, 7781-46-5, Carcinogen: Sodium arsenite, 7781-46-5, Doses [Carcinogen]: 0, 42.5, 85 ppm to dams on gestational days 8-18, Doses [Promoter]: 2 ug twice/wk, wks 4025 of life, Doses [Promoter]: 2 ug twice/wk, wks 4025 of life, Route [Carcinogen]: Drinking water, days 8-18 of gestation (dams), Route [Carcinogen]: Drinking water, days 8-18 of gestation (dams), Route [Promoter]: Dermal (to offspring), Species: Mouse, Strain/Sex: C3H/HeNCr, (25 Male and female offspring/Group of dams exposed to sodium arsenite), Strain/Sex: C3H/HeNCr, (25 Male and female offspring/Group of dams exposed to sodium arsenite)): skin: negative males: liver: hepatocellular carcinomas, lung: tumors females: ov
